{"source": "PubChem BioAssay AID1479", "about": "(National Center for Advancing Translational Sciences (NCATS), 2009)", "note": "About 820 (0.29%) of roughly 280,000 compounds were called active. This list was built around the results that the source calls inconclusive (neither active nor inactive); the mix of calls is not that of the screen. Calls come from the whole dose curve; as a rule, active = well fitted curve in either direction with a large enough effect; inconclusive = small, poorly fitted or top-dose-only effect; inactive = flat fitted curve, though single readings scatter. Potencies of inconclusive entries are left out as doubtful fits. Potency is the fitted concentration of half-maximal effect; tags give direction and shape of the fitted curve or compound fluorescence and quenching."}
{"assay": "Total Fluorescence Counterscreen for Inhibitors of the Interaction of Thyroid Hormone Receptor and Steroid Receptor Coregulator 2", "conditions": "TRb/SRC2 Texas Red total fluorescence interference; series mostly up to 106 µM", "description": "NIH Molecular Libraries Probe Production Network [MLPCN]\nNIH Chemical Genomics Center [NCGC]\nAssay Provider: R. Kip Guy, St. Jude Children's Research Hospital\nThyroid receptor (TR) regulates many homeostatic processes including basal metabolism, cardiovascular function, body weight, and lipid trafficking. TR modulators are potential therapeutics for obesity and hyperlipidemias but current thyroid analogs have undesirable side effects, particularly cardiac stimulation. To identify inhibitors that specifically prevent the interaction of TR with the steroid receptor […] 2 (SRC2), a fluorescence polarization assay was screened. This assay detects interaction of the ligand-binding domain of human TRb with a Texas Red labeled SRC2 peptide, corresponding to a 20 amino acid region of the nuclear receptor interaction domain (Arnold et al., 2006). Total fluorescence (555 nm excitation and 632 nm emission) was measured to identify potential fluorescent and light absorbing compounds. Such compounds may be artifacts that interfere with the fluorescence polarization assay.\nArnold, L. A.; Estebanez-Perpina, E.; Togashi, M.; Shelat, A.; Ocasio, C. A.; McReynolds, A. C.; Nguyen, P.; Baxter, J. D.; Fletterick, R. J.; Webb, P.; Guy, R. K. A high-throughput screening method to identify small molecule inhibitors of thyroid hormone receptor coactivator binding. Sci STKE 2006, p 13.\nNCGC Assay Protocol Summary:\nFor screening, 5 uL/well 0.6 uM TRb and 20 nM SRC2 Texas Red in protein buffer (20mM Tris hydrochloride, 100mM NaCl, 10% glycerol, 1mM EDTA, 0.01% NP-40, 1mM DTT, 1uM T3 and 5% DMSO) was dispensed into black solid 1536-well plates (Grenier) using a solenoid-based dispenser. Following transfer of 23 nL compound or DMSO vehicle by a pin tool, the plates were centrifuged 15 s at 1000 RPM and incubated 5 hr at ambient temperature. The plates were read by an Envision (Perkin Elmer) to detect fluorescence polarization of SRC2 Texas Red (555 nm excitation and 632 nm emission). Data were normalized to unbound (all components except TRb) and bound SRC2 Texas Red controls. Total fluorescence (TF) was calculated as follows: TF = S + 2P where S and P are fluorescence readings in the parallel and perpendicular channels, respectively.\nKeywords: NIH Roadmap, MLPCN, MLI, MLSMR, qHTS, NCGC, qHTS, thyroid hormone receptor, steroid receptor coactivator, fluorescence polarization"}
{"smiles": "CCCCC1=CC2=CC(=O)C(C)(OC(=O)c3cnc4ccccc4n3)C(=O)C2=CO1", "note": "(centres undefined)", "Potency": "inconclusive [fluorescent, partial curve]"}
{"smiles": "CCc1cccc(NC(=O)c2ccc3c(c2)N(Cc2cccc(Cl)c2)C(=O)c2ccccc2S3=O)c1", "note": "(centres undefined)", "Potency": "inactive"}
{"smiles": "CCOC(=O)c1c(-c2ccc(C)cc2)csc1NC(=O)c1cc(-c2ccc(OC)cc2)on1", "Potency": "inconclusive [quencher, full curve]"}
{"smiles": "Cc1ccc(-c2noc(-c3ccc(N4CCCC4)c([N+](=O)[O-])c3)n2)cc1", "Potency": "inactive"}
{"smiles": "CC(=O)NNc1cc(N2CCOCC2)nc(N2CCOCC2)n1", "Potency": "active: 31.6 µM [fluorescent]"}
{"smiles": "Cn1nnc(NC(=S)NC(=O)c2ccco2)n1", "Potency": "inconclusive [falling, full curve, poor fit]"}
{"smiles": "Cc1ccc(NC(=O)CSc2ncc(S(=O)(=O)c3ccccc3)c(=O)[nH]2)cc1C", "Potency": "active: 0.0003 µM [quencher]"}
{"smiles": "CSc1ncc(Cl)c(C(=O)Nc2c(C(=O)c3ccc(Cl)cc3)oc3ccccc23)n1", "Potency": "inconclusive [falling, partial curve, poor fit]"}
{"smiles": "CCOC(=O)c1c(S(=O)(=O)N2CCCC(C(=O)Nc3cccc(CC)c3)C2)c(C)n(CC)c1C", "note": "(centres undefined)", "Potency": "inconclusive [falling, full curve, poor fit]"}
{"smiles": "Oc1cccc(/C=N/NC(=S)Nc2cccnc2)c1O", "Potency": "inactive"}
{"smiles": "Cc1ccc(CSC2=NC(C)(C)Nc3ccccc32)c(C)c1", "Potency": "inconclusive [falling, partial curve, poor fit]"}
{"smiles": "Cc1ccccc1NC(=O)CSc1nc2c(oc3ccccc32)c(=O)n1Cc1ccco1", "Potency": "inconclusive [falling, full curve, poor fit]"}
{"smiles": "O=c1c2sc3ccccc3c2n(Cc2cccc(Cl)c2)c(=O)n1Cc1ccccc1", "Potency": "inconclusive [quencher, full curve]"}
{"smiles": "CCOC(=O)C1CCN(C(=O)Cn2nc(C)n3c(cc4c(OC)cccc43)c2=O)CC1", "Potency": "inconclusive [falling, full curve, poor fit]"}
{"smiles": "CCS(=O)(=O)NCc1ccc2[nH]c3c(c2c1)CCCC3", "Potency": "inactive"}
{"smiles": "Cc1ccc(S(=O)(=O)N(CC(=O)Nc2cccnc2)c2cc(Cl)ccc2C)cc1", "Potency": "inconclusive [falling, full curve, poor fit]"}
{"smiles": "CCOc1ccc(CNC(=O)C2CCCN(c3nn4cc(-c5ccc(OC)cc5)nc4s3)C2)cc1", "note": "(centres undefined)", "Potency": "inconclusive [quencher, full curve]"}
{"smiles": "Cc1ccc(-n2ncc(C(=O)NCCN3CCC(Cc4ccccc4)CC3)c2C2CCN(C(=O)OC(C)(C)C)CC2)cc1", "Potency": "inconclusive [falling, full curve, poor fit]"}
{"smiles": "CCOc1ccc(N(CC)C(=O)Cn2cnc3sc(C)c(S(=O)(=O)N4CCN(c5ncccn5)CC4)c3c2=O)cc1", "Potency": "inconclusive [falling, full curve, poor fit]"}
{"smiles": "O=[N+]([O-])C1=CC=C2C(=NC3(CCCCC3)N2O)C1=NC1CCCCC1", "Potency": "inactive"}
{"smiles": "Clc1cccc(Nc2ncnc3c2nc2n3CCCCC2)c1", "Potency": "inconclusive [quencher, full curve]"}
{"smiles": "CCc1ccc(S(=O)(=O)c2nnn3c2nc(N(CC)Cc2ccccc2)c2cc(Cl)ccc23)cc1", "Potency": "inconclusive [quencher, full curve]"}
{"smiles": "COc1ccc(NC(=S)Nc2ccc(OCc3ccccc3)cc2)cc1OC", "Potency": "inactive"}
{"smiles": "Cc1cccc(N2CCn3c2nc2c3c(=O)n(CCCc3ccccc3)c(=O)n2C)c1", "Potency": "inconclusive [falling, partial curve, poor fit]"}
{"smiles": "N#Cc1cccc(-n2nnnc2-c2ccccn2)c1", "Potency": "inactive"}
{"smiles": "CCCCN(CC)C(=O)CSc1nc2c(sc3ccccc32)c(=O)n1CCc1ccccc1", "Potency": "inconclusive [falling, partial curve, poor fit]"}
{"smiles": "COc1cc(Nc2nc3c(S(=O)(=O)c4ccccc4)nnn3c3ccc(Cl)cc23)cc(OC)c1", "Potency": "inconclusive [falling, full curve, poor fit]"}
{"smiles": "COc1ccc(C(c2nnnn2CS(=O)(=O)c2ccc(C)cc2)N2CCN(c3ncccn3)CC2)cc1", "note": "(centres undefined)", "Potency": "inactive"}
{"smiles": "Cc1ccc(C2Nc3cccc4cccc(c34)N2)s1", "Potency": "inconclusive [quencher, partial curve]"}
{"smiles": "COc1cccc(C(=O)Nc2cccc(C(=O)NC3=NN(c4c(Cl)cc(Cl)cc4Cl)C(=O)C3)c2)c1", "Potency": "inconclusive [quencher, partial curve]"}
{"smiles": "Cn1c(SCc2ccc(F)cc2)nc2ccc(C(=O)NCc3cccc(Cl)c3)cc21", "Potency": "inconclusive [quencher, full curve]"}
{"smiles": "Cc1ccc(NC(=O)CN2C(=O)N/C(=C/c3ccco3)C2=O)cc1", "Potency": "active: 50.1 µM [quencher]"}
{"smiles": "Cc1ccc(N(Cc2cccs2)C(=O)c2ccc(OC(C)C)cc2)cc1", "Potency": "inconclusive [falling, full curve, poor fit]"}
{"smiles": "O=C(Nc1nc2ccccc2s1)Nc1ccc([N+](=O)[O-])cc1Cl", "Potency": "inactive"}
{"smiles": "COc1ccc(-c2cn3c(n2)sc2cc(C(=O)NCCc4ccccc4)ccc23)cc1", "Potency": "inconclusive [falling, full curve, poor fit]"}
{"smiles": "CCOc1ccccc1NC(=O)CN1C(=O)CC(c2ccc(C)c(C)c2)=Nc2ccccc21", "Potency": "inconclusive [falling, partial curve, poor fit]"}
{"smiles": "Cc1cc(/C=C/c2ccc3cc(N(C)C)ccc3[n+]2C)c(C)n1-c1ccccc1", "Potency": "active: 39.8 µM [fluorescent]"}
{"smiles": "CC(=O)Nc1cccc(-c2nnc(SCC(=O)c3cc([N+](=O)[O-])ccc3Cl)o2)c1", "Potency": "inconclusive [quencher, full curve]"}
{"smiles": "Cc1ccn2c(Nc3ccccc3)c(-c3c[nH]c4ccccc34)nc2c1", "Potency": "inconclusive [quencher, full curve]"}
{"smiles": "Nc1nc2ccccc2nc1N", "Potency": "inactive"}
{"smiles": "O=c1/c(=C\\c2cc([N+](=O)[O-])cc([N+](=O)[O-])c2O)sc2nc3ccccc3n12", "Potency": "active: 44.7 µM [quencher]"}
{"smiles": "O=C(Nc1nc(-c2cc3ccccc3oc2=O)cs1)c1ccc(Br)o1", "Potency": "inactive"}
{"smiles": "CCOC(=O)c1c(C)oc2nc(C)nc(N3CCN(c4ccc(C)cc4C)CC3)c12", "Potency": "active: 447 µM [quencher]"}
{"smiles": "COc1ccc2oc(=O)c(C(=O)NCCc3c(C)[nH]c4c(C)cccc34)cc2c1", "Potency": "inconclusive [falling, full curve, poor fit]"}
{"smiles": "Cc1ccccc1C(=O)Nc1ccc(NC(=O)c2cccs2)cc1", "Potency": "inconclusive [falling, partial curve, poor fit]"}
{"smiles": "CCOc1cc(C(=O)Nc2ccc3oc(-c4ccc(CC)cc4)nc3c2)cc(OCC)c1OCC", "Potency": "inconclusive [falling, full curve, poor fit]"}
{"smiles": "Cc1cc(C)cc(NC(=O)CSCn2nnc3c(=O)[nH]c(Cc4ccc(F)cc4)nc32)c1", "Potency": "inconclusive [falling, full curve, poor fit]"}
{"smiles": "COc1ccc(CCNC(=O)CCc2c(C)nc3cc(-c4ccccc4)nn3c2C)cc1OC", "Potency": "inconclusive [quencher, full curve]"}
{"smiles": "CN1CCN(/N=C/c2ccc(Cl)c(Cl)c2)CC1", "Potency": "inconclusive [quencher, full curve]"}
{"smiles": "O=C(CN1Cc2ccccc2C1=O)Nc1cc(F)ccc1F", "Potency": "inconclusive [quencher, full curve]"}
{"smiles": "Cc1ccc(-c2noc(C3CCCN(S(=O)(=O)c4ccc5ccccc5c4)C3)n2)o1", "note": "(centres undefined)", "Potency": "inactive"}
{"smiles": "CCCCN(CC)C(=O)Cn1c(=O)n(-c2ccc(OCC)cc2)c(=O)c2c3c(sc21)CCC3", "Potency": "inconclusive [falling, full curve, poor fit]"}
{"smiles": "Cc1c(F)cccc1NC(=O)C1CCCN1S(=O)(=O)c1ccc(F)cc1", "note": "(centres undefined)", "Potency": "inconclusive [quencher, full curve]"}
{"smiles": "CCOCCCNc1nc2c(c(=O)n(C)c(=O)n2C)n1CCCc1ccccc1", "Potency": "inactive"}
{"smiles": "CCN(C(=O)CSc1nnc2ccccn12)c1c(N)n(Cc2ccccc2)c(=O)[nH]c1=O", "Potency": "inconclusive [falling, partial curve, poor fit]"}
{"smiles": "CNC(=S)N/N=C/c1cn(Cc2ccc(C)cc2)c2ccccc12", "Potency": "inconclusive [falling, full curve, poor fit]"}
{"smiles": "CCN(CC)c1ccc(N=Cc2c(C)[nH]c3ccccc23)cc1", "Potency": "inconclusive [fluorescent, partial curve]"}
{"smiles": "COc1ccc(C(=O)Nc2ccc3nc(SCC(=O)N4CCCc5ccccc54)sc3c2)cc1", "Potency": "inconclusive [falling, partial curve, poor fit]"}
{"smiles": "O=C(Nc1sc2c(c1C(=O)NCc1ccco1)CCCC2)c1cc(=O)c2ccccc2o1", "Potency": "inconclusive [falling, full curve, poor fit]"}
{"smiles": "Cc1ccc(NC(=O)Nc2ccc3snnc3c2)cc1C", "Potency": "inactive"}
{"smiles": "O=c1cc(-c2ccc(O)c(-c3c(O)cc(O)c4c(=O)cc(-c5ccc(O)cc5)oc34)c2)oc2cc(O)cc(O)c12", "Potency": "inactive"}
{"smiles": "COc1cc(/C=C/c2cc(OC(C)=O)c3ccccc3n2)c(OC(C)=O)c([N+](=O)[O-])c1", "Potency": "inactive"}
{"smiles": "O=C(CSc1nnc(-c2ccccc2)o1)c1cccc([N+](=O)[O-])c1", "Potency": "active: 11.2 µM [quencher]"}
{"smiles": "Cc1nc2cc(-c3ccsc3-n3c(C)ccc3C)[nH]n2c(=O)c1Cl", "Potency": "active: 44.7 µM [quencher]"}
